The list shows a part of the results.
What was measured:
Test in all cases: glycan array binding signal (z-score within array); higher = stronger binding
Conditions in all cases: glycan notation: IUPAC condensed, linker removed
[1] = target: Fuc(a1-2)Gal(b1-4)GlcNAc(b1-3)Gal(b1-4)GlcNAc(b1-2)Man(a1-3)[Fuc(a1-2)Gal(b1-4)GlcNAc(b1-3)Gal(b1-4)GlcNAc(b1-2)Man(a1-6)]Man(b1-4)GlcNAc(b1-4)GlcNAc
Procedure, shortened: (§1)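 Glycan array data came from 3228 arrays in the Consortium for Functional Glycomics database, and only arrays with an available protein sequence were kept. Glycan names were put into IUPAC-condensed notation, and columns mapping to the same glycan were averaged. The binding signal is a within-array Z-score, averaged across arrays of one protein sequence run at different concentrations or buffers and across linkers. A negative Z-score can be read as non-binding.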

[2] = target: Fuc(a1-2)Gal(b1-4)GlcNAc(b1-3)Gal(b1-4)GlcNAc(b1-3)Gal(b1-4)GlcNAc
Procedure, shortened: as §1

[3] = target: Fuc(a1-2)Gal(b1-4)GlcNAc(b1-3)GalNAc
Procedure, shortened: as §1

[4] = target: Fuc(a1-2)Gal(b1-4)GlcNAc(b1-3)[Fuc(a1-2)Gal(b1-4)GlcNAc(b1-6)]GalNAc
Procedure, shortened: as §1

[5] = target: Fuc(a1-2)Gal(b1-4)GlcNAc(b1-3)[Fuc(a1-3)[Gal(b1-4)]GlcNAc(b1-6)]Gal(b1-4)Glc
Procedure, shortened: as §1

[6] = target: Fuc(a1-2)Gal(b1-4)GlcNAc(b1-6)GalNAc
Procedure, shortened: as §1

[7] = target: Fuc(a1-2)Gal(b1-4)GlcNAc6S
Procedure, shortened: as §1

[8] = target: Fuc(a1-2)Gal(b1-4)[Fuc(a1-3)]GlcNAc
Procedure, shortened: as §1

[9] = target: Fuc(a1-2)Gal(b1-4)[Fuc(a1-3)]GlcNAc(b1-2)Man(a1-3)[Fuc(a1-2)Gal(b1-4)[Fuc(a1-3)]GlcNAc(b1-2)Man(a1-6)]Man(b1-4)GlcNAc(b1-4)[Fuc(a1-6)]GlcNAc
Procedure, shortened: as §1

[10] = target: Fuc(a1-2)Gal(b1-4)[Fuc(a1-3)]GlcNAc(b1-2)[Fuc(a1-2)Gal(b1-4)[Fuc(a1-3)]GlcNAc(b1-4)]Man(a1-3)[Fuc(a1-2)Gal(b1-4)[Fuc(a1-3)]GlcNAc(b1-2)Man(a1-6)]Man(b1-4)GlcNAc(b1-4)GlcNAc
Procedure, shortened: as §1

[11] = target: Fuc(a1-2)Gal(b1-4)[Fuc(a1-3)]GlcNAc(b1-3)Gal(b1-4)[Fuc(a1-3)]GlcNAc
Procedure, shortened: as §1

[12] = target: Fuc(a1-2)Gal(b1-4)[Fuc(a1-3)]GlcNAc(b1-3)Gal(b1-4)[Fuc(a1-3)]GlcNAc(b1-3)Gal(b1-4)[Fuc(a1-3)]GlcNAc
Procedure, shortened: as §1

[13] = target: Fuc(a1-2)Gal(b1-4)[Fuc(a1-3)]GlcNAc(b1-3)GalNAc
Procedure, shortened: as §1

[14] = target: Fuc(a1-2)Gal(b1-4)[Fuc(a1-3)]GlcNAc(b1-3)[Neu5Ac(a2-6)Gal(b1-4)GlcNAc(b1-6)]Gal(b1-4)Glc
Procedure, shortened: as §1

[15] = target: Fuc(a1-2)Gal3S(b1-4)GlcNAc
Procedure, shortened: as §1

[16] = target: Fuc(a1-2)Gal6S(b1-3)GlcNAc
Procedure, shortened: as §1

[17] = target: Fuc(a1-2)Gal6S(b1-3)GlcNAc6S
Procedure, shortened: as §1

Fuc(a1-2)Gal6S(b1-4)Glc = target: Fuc(a1-2)Gal6S(b1-4)Glc
Procedure, shortened: as §1

[18] = target: Fuc(a1-2)Gal6S(b1-4)Glc6S
Procedure, shortened: as §1

Fuc(a1-2)GlcNAc = target: Fuc(a1-2)GlcNAc
Procedure, shortened: as §1

Fuc(a1-2)[Gal(a1-3)]Gal = target: Fuc(a1-2)[Gal(a1-3)]Gal
Procedure, shortened: as §1

[19] = target: Fuc(a1-2)[Gal(a1-3)]Gal(b1-3)GalNAc
Procedure, shortened: as §1

[20] = target: Fuc(a1-2)[Gal(a1-3)]Gal(b1-3)GalNAc(b1-3)Gal(a1-4)Gal(b1-4)Glc
Procedure, shortened: as §1

[21] = target: Fuc(a1-2)[Gal(a1-3)]Gal(b1-3)GlcNAc
Procedure, shortened: as §1

[22] = target: Fuc(a1-2)[Gal(a1-3)]Gal(b1-3)GlcNAc(b1-2)Man(a1-3)[Fuc(a1-2)[Gal(a1-3)]Gal(b1-3)GlcNAc(b1-2)Man(a1-6)]Man(b1-4)GlcNAc(b1-4)GlcNAc
Procedure, shortened: as §1

[23] = target: Fuc(a1-2)[Gal(a1-3)]Gal(b1-3)GlcNAc(b1-2)Man(a1-3)[Fuc(a1-2)[Gal(a1-3)]Gal(b1-3)GlcNAc(b1-2)Man(a1-6)]Man(b1-4)GlcNAc(b1-4)[Fuc(a1-6)]GlcNAc
Procedure, shortened: as §1

[24] = target: Fuc(a1-2)[Gal(a1-3)]Gal(b1-3)GlcNAc(b1-3)GalNAc
Procedure, shortened: as §1

[25] = target: Fuc(a1-2)[Gal(a1-3)]Gal(b1-3)GlcNAc(b1-6)GalNAc
Procedure, shortened: as §1

[26] = target: Fuc(a1-2)[Gal(a1-3)]Gal(b1-4)Glc
Procedure, shortened: as §1

[27] = target: Fuc(a1-2)[Gal(a1-3)]Gal(b1-4)GlcNAc
Procedure, shortened: as §1

[28] = target: Fuc(a1-2)[Gal(a1-3)]Gal(b1-4)GlcNAc(b1-2)Man
Procedure, shortened: as §1

[29] = target: Fuc(a1-2)[Gal(a1-3)]Gal(b1-4)GlcNAc(b1-2)Man(a1-3)[Fuc(a1-2)[Gal(a1-3)]Gal(b1-4)GlcNAc(b1-2)Man(a1-6)]Man(b1-4)GlcNAc(b1-4)GlcNAc
Procedure, shortened: as §1

[30] = target: Fuc(a1-2)[Gal(a1-3)]Gal(b1-4)GlcNAc(b1-2)Man(a1-3)[Fuc(a1-2)[Gal(a1-3)]Gal(b1-4)GlcNAc(b1-2)Man(a1-6)]Man(b1-4)GlcNAc(b1-4)[Fuc(a1-6)]GlcNAc
Procedure, shortened: as §1

[31] = target: Fuc(a1-2)[Gal(a1-3)]Gal(b1-4)GlcNAc(b1-3)GalNAc
Procedure, shortened: as §1

[32] = target: Fuc(a1-2)[Gal(a1-3)]Gal(b1-4)GlcNAc(b1-6)GalNAc
Procedure, shortened: as §1

[33] = target: Fuc(a1-2)[Gal(a1-3)]Gal(b1-4)[Fuc(a1-3)]Glc
Procedure, shortened: as §1

[34] = target: Fuc(a1-2)[Gal(a1-3)]Gal(b1-4)[Fuc(a1-3)]GlcNAc
Procedure, shortened: as §1

[35] = target: Fuc(a1-2)[Gal(a1-3)]Gal(b1-4)[Fuc(a1-3)]GlcNAc(b1-3)GalNAc
Procedure, shortened: as §1

[36] = target: Fuc(a1-2)[Gal(a1-4)]Gal(b1-4)GlcNAc
Procedure, shortened: as §1

[37] = target: Fuc(a1-2)[GalNAc(a1-3)]Gal
Procedure, shortened: as §1

[38] = target: Fuc(a1-2)[GalNAc(a1-3)]Gal(b1-3)GalNAc(a1-3)[Fuc(a1-2)]Gal(b1-4)GlcNAc
Procedure, shortened: as §1

[39] = target: Fuc(a1-2)[GalNAc(a1-3)]Gal(b1-3)GalNAc(b1-3)Gal(a1-4)Gal(b1-4)Glc
Procedure, shortened: as §1

[40] = target: Fuc(a1-2)[GalNAc(a1-3)]Gal(b1-3)GlcNAc
Procedure, shortened: as §1

[41] = target: Fuc(a1-2)[GalNAc(a1-3)]Gal(b1-3)GlcNAc(b1-2)Man(a1-3)[Fuc(a1-2)[GalNAc(a1-3)]Gal(b1-3)GlcNAc(b1-2)Man(a1-6)]Man(b1-4)GlcNAc(b1-4)GlcNAc
Procedure, shortened: as §1

[42] = target: Fuc(a1-2)[GalNAc(a1-3)]Gal(b1-3)GlcNAc(b1-2)Man(a1-3)[Fuc(a1-2)[GalNAc(a1-3)]Gal(b1-3)GlcNAc(b1-2)Man(a1-6)]Man(b1-4)GlcNAc(b1-4)[Fuc(a1-6)]GlcNAc
Procedure, shortened: as §1

B1: HHA (Hippeastrum hybrid) (protein)
chain: MQQDCNLVLYDVDKPIWASNTGGLARDCHLNMQSDGNLVVYAPRNQVIWASNTQGENGNYVCILQKDRNVVIYGTARWATGTNIHGAGIVGVPGSAPQNTTAEMIKLVRKYLITK
[1]
  glycan array binding signal (z-score): -0.182
[2]
  glycan array binding signal (z-score): -0.183
[3]
  glycan array binding signal (z-score): -0.037
[4]
  glycan array binding signal (z-score): -0.2
[5]
  glycan array binding signal (z-score): -0.21
[6]
  glycan array binding signal (z-score): -0.184
[7]
  glycan array binding signal (z-score): -0.207
[8]
  glycan array binding signal (z-score): -0.216
[9]
  glycan array binding signal (z-score): -0.172
[10]
  glycan array binding signal (z-score): -0.152
[11]
  glycan array binding signal (z-score): -0.22
[12]
  glycan array binding signal (z-score): -0.19
[13]
  glycan array binding signal (z-score): -0.127
[14]
  glycan array binding signal (z-score): -0.216
[15]
  glycan array binding signal (z-score): -0.217
[16]
  glycan array binding signal (z-score): -0.212
[17]
  glycan array binding signal (z-score): -0.169
Fuc(a1-2)Gal6S(b1-4)Glc
  glycan array binding signal (z-score): -0.204
[18]
  glycan array binding signal (z-score): -0.207
Fuc(a1-2)GlcNAc
  glycan array binding signal (z-score): -0.25
Fuc(a1-2)[Gal(a1-3)]Gal
  glycan array binding signal (z-score): -0.2
[19]
  glycan array binding signal (z-score): -0.211
[20]
  glycan array binding signal (z-score): -0.209
[21]
  glycan array binding signal (z-score): -0.197
[22]
  glycan array binding signal (z-score): 0.004
[23]
  glycan array binding signal (z-score): 0.663
[24]
  glycan array binding signal (z-score): -0.194
[25]
  glycan array binding signal (z-score): -0.204
[26]
  glycan array binding signal (z-score): -0.207
[27]
  glycan array binding signal (z-score): -0.211
[28]
  glycan array binding signal (z-score): -0.207
[29]
  glycan array binding signal (z-score): -0.112
[30]
  glycan array binding signal (z-score): 0.204
[31]
  glycan array binding signal (z-score): 0.244
[32]
  glycan array binding signal (z-score): -0.212
[33]
  glycan array binding signal (z-score): -0.208
[34]
  glycan array binding signal (z-score): -0.202
[35]
  glycan array binding signal (z-score): -0.077
[36]
  glycan array binding signal (z-score): -0.2
[37]
  glycan array binding signal (z-score): -0.21
[38]
  glycan array binding signal (z-score): -0.208
[39]
  glycan array binding signal (z-score): -0.213
[40]
  glycan array binding signal (z-score): -0.212
[41]
  glycan array binding signal (z-score): -0.123
[42]
  glycan array binding signal (z-score): 0.519

From the supplement of paper PMC8728848
